Source: PubChem BioAssay AID1030 (National Center for Advancing Translational Sciences (NCATS), 2008)
Among all 220,000 compounds or so, about 16,000 (7.3%) were called active. The shares of active, inactive and inconclusive entries below differ from those in the screen. The call rests on the fitted dose curve; in most records, active means well fitted inhibition curve with a large enough effect (not every such curve was filed as active); inconclusive means small, poorly fitted or top-dose-only effect, or another doubt; inactive means no such curve, though single readings can be large or run the other way. No potency is given beside an inconclusive call; the fits are too rough.

target: Aldehyde dehydrogenase 1A1 (Homo sapiens) (UniProt P00352); assay: qHTS Assay for Inhibitors of Aldehyde Dehydrogenase 1 (ALDH1A1); settings: Purified ALDH1A1, NADH fluorescence, propionaldehyde substrate; series mostly up to 75.3 µM;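 on activity, negative = inhibition: plate controls were no enzyme wells and a reference inhibitor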
Chain of UniProt P00352 (P00352 whole entry, looked up): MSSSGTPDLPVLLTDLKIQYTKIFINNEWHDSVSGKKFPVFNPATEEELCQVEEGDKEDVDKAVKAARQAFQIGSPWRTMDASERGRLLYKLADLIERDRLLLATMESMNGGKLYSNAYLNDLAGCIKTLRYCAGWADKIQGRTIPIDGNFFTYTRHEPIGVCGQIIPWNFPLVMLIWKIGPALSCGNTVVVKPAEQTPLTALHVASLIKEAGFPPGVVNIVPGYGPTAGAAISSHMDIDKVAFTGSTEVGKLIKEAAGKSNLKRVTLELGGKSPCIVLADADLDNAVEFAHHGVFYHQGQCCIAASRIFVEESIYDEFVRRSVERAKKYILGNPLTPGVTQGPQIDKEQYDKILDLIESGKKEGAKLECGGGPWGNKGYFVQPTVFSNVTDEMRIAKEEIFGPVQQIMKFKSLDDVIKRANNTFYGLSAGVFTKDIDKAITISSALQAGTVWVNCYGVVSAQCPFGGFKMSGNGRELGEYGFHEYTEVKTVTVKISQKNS
Potency means the concentration at half of the fitted maximal effect; tags describe the fitted curve by direction and shape.

Structure (SMILES)	Potency	activity, negative = inhibition
Cc1ccc(C)c(N2C(=N)S/C(=C\c3ccc(-c4ccccc4C(=O)O)o3)C2=O)c1	inconclusive [inhibitor, single point]	
COc1cc(C=O)ccc1OCCOc1ccccc1[N+](=O)[O-]	inconclusive [inhibitor, partial curve]	
CN(C)Cc1ccccc1-c1ccc2ncnc(NC3CCNCC3)c2c1	inactive	
CCOc1ccc(NC(=S)N(CCN2CCOCC2)Cc2cc3cc4c(cc3[nH]c2=O)OCO4)cc1	inconclusive [inhibitor, partial curve]	
CCOC(=O)c1cccc(NC(=O)CCS(=O)(=O)c2cccc3nsnc23)c1	active: 22.4 µM	
CC/C(=N\Nc1ccccc1[N+](=O)[O-])c1ccc(O)cc1	inactive	
C[N+](C)([O-])Cc1cc(-c2ccccc2)ccc1O		inactive: -9% [at 13.5 µM]
COc1ccc(CCNC(=O)c2ccc(CSc3ccccc3)o2)cc1	active: 3.55 µM	
Cc1cc(-c2n[nH]c(=S)n2-c2ccccc2C)cs1	inconclusive [inhibitor, partial curve]	
CC(C)CN1CCC(C(=O)NCC2CCCO2)CC1 (stereo not given)	inconclusive [inhibitor, partial curve]	
Cc1ccc(S(=O)(=O)N(CC(=O)NCc2ccco2)C2CCCCC2)cc1	inconclusive [inhibitor, partial curve]	
CC(C)Cc1ccc(C(C)NC(=O)c2ccc(=O)[nH]c2)cc1 (stereo not given)	inactive	
C=CCN(CC=C)S(=O)(=O)c1ccc(NC(=S)NC(=O)c2ccco2)cc1	active: 22.4 µM	
Oc1ccccc1	inactive	
CCCn1c(SCC(=O)c2[nH]c(C)c(C(C)=O)c2C)n[nH]c1=O	inconclusive [inhibitor, single point]	
COc1ccc(-c2ccnc3nc(-n4cccc4)nn23)cc1	inconclusive [inhibitor, partial curve]	
Cc1cc(C)n(C(=O)c2ccc(NC(=O)C3COc4ccccc4O3)cc2)n1 (stereo not given)	inconclusive [inhibitor, single point]	
CCOC(=O)CSc1nc2sc3c(c2c(=O)n1CC)CC(C)(C)OC3	inconclusive [inhibitor, single point]	
Cc1cc(S(=O)(=O)N(Cc2ccc(C(C)(C)C)cc2)Cc2cccs2)ccc1-n1cnnn1	inconclusive [inhibitor, single point]	
CCCOc1ccc(-c2nnc(-c3ccco3)o2)cc1	inconclusive [inhibitor, partial curve]	
Cc1[nH]n(-c2cccc(Cl)c2)c(=O)c1C=NCC(C)C	inactive	
Cc1ccc(S(=O)(=O)c2ccc(Cl)cc2)cc1S(=O)(=O)NC(C(=O)O)C(C)C (stereo not given)	inconclusive [inhibitor, single point]	
CCN(CC)C(=O)C1CCCN(c2ccc([N+](=O)[O-])cc2/C=N/NC(=O)c2cccc(Br)c2)C1 (stereo not given)	inconclusive [inhibitor, partial curve]	
O=C(N/N=C/C(Cl)=C/c1ccccc1)c1ccccn1	inconclusive [inhibitor, single point]	
Cc1ccc(-c2cc(C(=O)N/N=C/C=C/c3ccccc3)n[nH]2)s1	inconclusive [inhibitor, single point]	

Structure (SMILES)	Potency	activity, negative = inhibition
COCCNCCCCSc1ccc(Cl)cc1	inconclusive [inhibitor, single point]	
C=C(C)C1CC=C(C)/C(=N/NC(=O)CNc2ccc(OCC)cc2)C1 (stereo not given)	inconclusive [inhibitor, single point]	
CCOC(=O)CCSc1nc(C)c2ccccc2n1	inactive	
CCN(CC)CCOC(=O)C1(C2CCCCC2)CCCCC1	inactive	
COc1ccc(S(=O)(=O)/N=C2/NC(=O)/C(=C\c3cc(OC)c(OC)cc3[N+](=O)[O-])S2)cc1	inconclusive [inhibitor, partial curve]	
COC(=O)C1=C(C)NC(=O)/C1=C\c1cc(C)n(-c2c(C)cccc2C)c1C	active: 17.8 µM	
O=C(Nc1ccc(N2CCN(C(=O)c3cccs3)CC2)cc1)c1cccnc1Cl	inactive	
COc1ccc2c(=O)c3c(=O)n(Cc4ccco4)c(-c4ccc(C)cc4)nc3oc2c1	inconclusive [inhibitor, partial curve]	
CCCCOCCOCCOCc1cc2c(cc1CCC)OCO2	active: 10 µM	
COc1ccc(C)cc1-n1nnnc1SCC1CCCO1 (stereo not given)	active: 12.6 µM	
CCCn1nnnc1SCC(=O)N1CCN(C(=O)c2ccco2)CC1	inconclusive [inhibitor, single point]	
O=C(c1cnc2sccn2c1=O)N(Cc1ccccc1)c1ccccn1	inconclusive [inhibitor, single point]	
O=C1C(CCCNC(=S)NCc2ccccc2)NC(=S)N1Cc1ccccc1 (stereo not given)	active: 31.6 µM	
Nc1nc(Cl)cc(NCCc2ccc(O)cc2)n1	inconclusive [inhibitor, single point]	
O=c1cc(-c2ccccc2)oc2c(O)c(O)ccc12	active: 3.98 µM	
O=C(/C=C/c1ccccc1Cl)NCCc1ccccc1	inactive	
COC(=O)c1cccnc1-n1c(=O)c2cccnc2n(Cc2cccc(OC)c2)c1=O	inconclusive [inhibitor, single point]	
CCC(NS(=O)(=O)c1ccc(OC)cc1)C(=O)NCCC1=CCCCC1 (stereo not given)	inconclusive [inhibitor, single point]	
O=C(NC1CCc2ccccc21)c1cc(COc2ccc(F)cc2F)on1 (stereo not given)	inconclusive [inhibitor, single point]	
COCCSc1nnc(NC(=O)c2ccc(NC(=O)C(C)C)cc2)s1	inconclusive [inhibitor, single point]	
O=C1CC(N2CCN(c3ccc(F)cc3)CC2)C(=O)N1c1ccc2c(c1)OCO2 (stereo not given)	active: 18.9 µM	
CSc1cccc(NC(=O)c2c(Cl)cnn2C)c1	inactive	
C/C(=C\C(=O)c1ccccc1)Nc1ccc2c(c1)OCO2	inconclusive [inhibitor, single point]	
Cc1ccc2c(c1)N(CCC(=O)NCc1ccccn1)C(=O)CO2	active: 22.4 µM	
CCOC(=O)c1[nH]c2ccccc2c1NC(=O)C(C)(C)C	inconclusive [inhibitor, single point]	

Structure (SMILES)	Potency	activity, negative = inhibition
CSC1=NCCN1C(=O)c1ccc(S(=O)(=O)N(C)C)cc1	inconclusive [inhibitor, single point]	
COc1cc2c(C#N)c(N3CCN(c4ccccc4OC)CC3)nc(N)c2c(N)n1	inconclusive [inhibitor, partial curve]	
CCOc1ccc(C(CC(=O)O)NC(=O)COc2ccccc2OC)cc1OC (stereo not given)	inactive	
COc1cc(/C=C/C(=O)Nc2ccc(C)cc2)cc(OC)c1OC	inactive	
O=C(Nc1ccc2ccccc2c1)c1cccnc1	inconclusive [inhibitor, single point]	
CCOC(=O)C1CCCN(C(=O)c2ccc(Cl)cc2)C1 (stereo not given)	inactive	
COC(=O)CN(c1ccccn1)S(=O)(=O)c1ccccc1	inconclusive [inhibitor, partial curve]	
Cc1ccc(OCC(=O)N2CCc3ccccc3C2)c([N+](=O)[O-])n1	inactive	
COc1ccc(Oc2ncc3nc(-c4ccc(Cl)cc4)c(=O)n(C4CC4)c3n2)cc1	inconclusive [inhibitor, partial curve]	
CCOC(=O)Nc1cc(C)c(Cl)cc1OC	inactive	
COC(=O)c1c(C)cc(C)n2c1nc1ccccc12	inconclusive [inhibitor, single point]	
CC(C)C(=O)Nc1c2c(nc3ccccc13)N(C)CC2	inconclusive [inhibitor, partial curve]	
CCN(CC)C(=O)C1CCN(Cc2ccc(Br)cc2)CC1	inconclusive [inhibitor, partial curve]	
CCOC(=O)c1sc(-c2ccc(C)cc2)c(C#N)c1C	inconclusive [inhibitor, single point]	
Cc1ccc(C)c(NC(=O)c2cccc(Oc3ccc([N+](=O)[O-])cc3Cl)c2)c1	inconclusive [inhibitor, single point]	
COC(=O)NCc1ccc2c(c1)OCO2	inactive	
COC(OC)c1ccc(C#N)c(=O)[nH]1	inconclusive [inhibitor, partial curve]	
Cc1cccc2cc(COC(=O)c3ccccc3)c(=O)[nH]c12	inactive	
CN(C)S(=O)(=O)c1cccc(NC(=O)COC(=O)CCC(=O)c2ccc(F)cc2)c1	inactive	
Cc1cccc(NC(NC(=O)c2ccccc2[N+](=O)[O-])C(Cl)(Cl)Cl)c1 (stereo not given)	inactive	
Cc1c([N+](=O)[O-])cc(C(=O)Oc2ccc(Br)cc2C(=S)N2CCCCC2)cc1[N+](=O)[O-]	inconclusive [inhibitor, partial curve]	
CCCC(=O)N1CCN(c2ccc(NC(=O)c3ccc(Br)o3)cc2)CC1	inactive	
CSc1ccccc1NC(=O)Nc1cccc(Cl)c1C	inactive	
Cc1cc(/C=C(/C#N)c2cccc(F)c2)c(C)n1-c1cccnc1	inconclusive [inhibitor, partial curve]	
COc1cc2c(cc1C=O)OC(C)C2 (stereo not given)	inconclusive [inhibitor, single point]	
